# According to PubChem BioAssay AID624296 (National Center for Advancing Translational Sciences (NCATS), 2012):
# Hit rate of the full screen: of about 350,000 compounds, about 9,900 (2.8%) were called active. The inconclusive results got no clear call from the source; some entries with a clear call stand among them for comparison. Calls come from the whole dose curve; as a rule, active = well fitted activation curve with a large enough effect; inconclusive = small, poorly fitted or top-dose-only effect; inactive = no such curve, though single readings can be large or run the other way. No potency is given beside an inconclusive call; the fits are too rough.
# Assay: A quantitative high throughput screen for small molecules that induce DNA re-replication in MCF 10a normal breast cells. For activity, positive = re-replication: % of control where 0% means no effect. Note: nearly all actives have a fitted effect of over 50% in size.
# Settings: MCF 10A DNA re-replication, Hoechst nuclear intensity, 48 h; activity, positive = re-replication: at 46.1 µM (top of the series)
# Potency is the fitted concentration of half-maximal effect; tags give direction and shape of the fitted curve.
SMILES,Potency,"activity, positive = re-replication"
Fc1ccc2[nH]c3c(N4CCc5ccccc5C4)ncnc3c2c1,"inconclusive [activator, single point]",–
Cc1cc(NC(=O)c2cccnc2)ccc1NC(=O)c1cc2ccccc2o1,–,inactive: -0.0199%
O=c1[nH]nc(N2CCOCC2)c(=O)[nH]1,"inconclusive [activator, single point]",–
Cc1ccc(NC(=O)Cn2c(=O)cnc3ccccc32)cc1S(=O)(=O)N1CCOCC1,"inconclusive [activator, partial curve, poor fit]",–
CCOC(=O)c1cc2c(c(CCO)n1)[C@@H](CCO)N(S(=O)C(C)(C)C)C2 (stereo partly drawn),–,inactive: -4.94%
Brc1ccc(-c2csc(N/N=C/c3cccnc3)n2)cc1,"inconclusive [activator, single point]",–
Cc1cc(C)nc(OC(=O)c2c(Cl)cc(Cl)cc2Cl)n1,"inconclusive [activator, partial curve]",–
COc1cc(/C=C/C(=O)/C=C(O)/C=C/c2ccc(O)c(OC)c2)ccc1O,active: 33.5 µM,–
COc1ccccc1NC(=O)C(C)N1CCN(C/C=C/c2ccccc2)CC1 (stereo not drawn),"inconclusive [activator, single point]",–
CS(=O)(=O)N1CCN(c2ccc([N+](=O)[O-])cc2C(F)(F)F)CC1,"inconclusive [activator, single point]",–
COc1ccc2c(c1)C(NS(=O)(=O)OCC(Cl)(Cl)Cl)CCC2 (stereo not drawn),"inconclusive [activator, single point]",–
c1cncc(-c2nnc(SCc3nc4ccccc4[nH]3)o2)c1,–,inactive: -1.22%
COC(=O)c1cccc(NC(=O)CSc2nnc(COc3ccc(C#N)cc3)n2-c2ccccc2)c1,"inconclusive [activator, single point]",–
COc1ccc(N(Cc2cc(=O)[nH]c3ccccc23)C(=O)CCl)cc1,"inconclusive [activator, single point]",–
Cc1cc(-c2n[nH]c(=S)n2/N=C/c2ccc(Cl)c([N+](=O)[O-])c2)n[nH]1,"inconclusive [activator, single point]",–
COc1ccc(OC)c(CCNC(=O)c2nn(C)c3c2CS(=O)(=O)c2ccccc2-3)c1,"inconclusive [activator, partial curve, poor fit]",–
Nc1ccc(S(=O)(=O)Nc2nc3ccccc3o2)cc1,–,inactive: -5.64%
CC(=O)c1sc(N/N=C2\CC3CCC2(C)C3(C)C)nc1C (stereo not drawn),active: 20.6 µM,–
CC(=O)Oc1cccc(/C=C2\Sc3ccccc3C2=O)c1,"inconclusive [activator, single point]",–
COc1ccc(S(=O)(=O)N2CCC3(CC2)OCCN3S(=O)(=O)c2c(C)cc(C)cc2C)cc1,–,inactive: -1.86%
CCOC(=S)SCC(=O)Nc1nc(C)c(C)s1,active: 18.4 µM,–
Cc1[nH]c(-c2ccccn2)nc(=S)c1Cl,–,inactive: -0.862%

SMILES,Potency,"activity, positive = re-replication"
CCOc1ccc(NC(=O)/C(C#N)=C/c2cn(CC(=O)O)c3ccccc23)cc1,"inconclusive [activator, partial curve, poor fit]",–
CCn1c(NCc2ccccc2NS(=O)(=O)c2ccc(C)cc2)nc2ccccc21,"inconclusive [activator, partial curve, poor fit]",–
COC(=O)C1=C(C)NC(C)=C(C(=O)OC(C)(C)CN(C)CCC(c2ccccc2)c2ccccc2)C1c1cccc([N+](=O)[O-])c1 (stereo not drawn),–,inactive: 14.9%
N/C(=N\OCc1ccc([N+](=O)[O-])cc1)c1ccccn1,–,inactive: -3.71%
Cc1ccccc1NC(=S)N/N=C/C(C)c1ccccc1 (stereo not drawn),–,inactive: -1.51%
O=S(=O)(c1cccc(-n2cnnn2)c1)N1CCOCC1,"inconclusive [activator, partial curve, poor fit]",–
O=C(Nc1cccc(-c2ccc(N3CCCCC3)nn2)c1)c1ccc(Br)o1,"inconclusive [activator, single point]",–
COc1cccc(C(=O)/C=C/Nc2cccc(O)c2)c1,"inconclusive [activator, partial curve, poor fit]",–
COc1ccc(COc2ccc(C3C(S(=O)(=O)c4ccccc4)CON3C)cc2OC)cc1 (stereo not drawn),–,inactive: -4.25%
Cc1ccccc1-c1nsc(SCC(=O)c2ccc(Cl)cc2)n1,"inconclusive [activator, single point]",–
CCOC(=O)c1sc(N2C(=O)C(O)=C(C(=O)c3ccco3)C2c2ccc(C)o2)nc1C (stereo not drawn),"inconclusive [activator, single point]",–
CCOC(=O)Cc1nn(CC)c(=O)c2ccccc12,"inconclusive [activator, partial curve, poor fit]",–
COC(=O)C(=C/C=C/c1cccnc1)C(=O)OC,"inconclusive [activator, partial curve, poor fit]",–
O=C(c1cc(-c2cccs2)nc2ccccc12)N1CCN(c2ccccc2O)CC1,"inconclusive [activator, single point]",–
O=C(Nc1cccc(S(=O)(=O)NC2=NCCCCC2)c1)c1cc(-c2ccccc2Cl)nc2ccccc12,"inconclusive [activator, full curve]",–
COc1ccc(S(=O)(=O)Nc2ccccc2C(=O)NCc2ccco2)cc1,"inconclusive [activator, partial curve, poor fit]",–
COc1ccc(NC(=O)Nc2cccc3c2O[C@H](CN(C)C(=O)Nc2ccccc2)[C@@H](C)CN([C@H](C)CO)C3=O)cc1,–,inactive: -14.3%
CC(/C=N\NC(=O)c1cccnc1)c1ccccc1 (stereo not drawn),"inconclusive [activator, single point]",–
O=C(Nc1ncnc2c1C(c1ccccc1)c1c(ccc3ccccc13)O2)c1ccccc1 (stereo not drawn),"inconclusive [activator, single point]",–
CCn1c(C(=O)N2CCC(C(=O)NCc3ccc4c(c3)OCO4)CC2)cc2sccc21,–,inactive: -3.86%
N=C1/C(=C/c2cccn2Cc2ccc(Cl)cc2)C(=O)N=C2SC=CN12,"inconclusive [activator, single point]",–
